Several values for one entry are separate records, joined by “and”; a condition that tells them apart may be missing. Equal values may be shown once. Among all 390,000 compounds or so, about 930 (0.24%) were called active. This list was built around the results that the source calls inconclusive (neither active nor inactive); the mix of calls is not that of the screen. Calls follow the shape of the dose curve; as a rule, active = well fitted activation curve with a large enough effect; inconclusive = small, poorly fitted or top-dose-only effect; inactive = no such curve, though single readings can be large or run the other way. Where the call is inconclusive, the potency comes from a doubtful curve fit.
Assay: qHTS for Suppressors of FUS Proteinopathy: Primary screen using FUS-linked yeast assay; also: nearly all actives have a fitted effect of over 55% in size;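 as to growth rescue (activation): plate controls were DMSO vehicle for no effect and reference control for full effect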
Details: S. cerevisiae FUS-expressing, OD600, 24 h; Potency: growth rescue; growth rescue (activation): at 76.6 µM (top of the series)
How it was run: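 FUS-expressing yeast, raffinose-pregrown, induced in 2% galactose minimal medium at OD 0.005; compounds in a dilution series, 24hr at 30C. Growth restoration read as absorbance at 600 nm. CP55940 positive control, DMSO negative.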
Potency is read from the fitted curve at half-maximal effect; tags tell the direction and shape of the fitted curve.

**Q.** Which Potency does the source give for `O=S(=O)(NCCc1csc2nc(-c3ccc(F)cc3)nn12)c1ccc(Oc2ccccc2)cc1` here?
**A.** inactive

**Q.** Which Potency does the source give for `CC(=O)Nc1ccc(-c2ccnc3c2CC(C(=O)Nc2ccc(Cl)c(C(F)(F)F)c2)O3)cc1` (configuration not stated) here?
**A.** inactive

**Q.** With `Cc1cc(N2CCC(C(=O)NCCC(C)C)CC2)n2nc(C)c(-c3ccc(Cl)cc3)c2n1` as the compound, how does the Potency read?
**A.** inactive

**Q.** With `CCOC(=O)c1c(NC(=O)c2cc(-c3ccc(Cl)cc3)on2)sc(C)c1C` as the compound, how does the Potency read?
**A.** inactive

**Q.** For `COc1ccc(COc2cc(-c3cccc(OC)c3)nc3ccc(NC(=O)c4ccc(OC)cc4)cc23)cc1`, which Potency is on record?
**A.** inconclusive: 20 µM [activator, single point]

**Q.** With `CN(C)CCOc1ccc(C(C)(C)c2ccccc2)cc1` as the compound, how does the Potency read?
**A.** inactive

**Q.** For `O=C(Cn1nnc(-c2ccc(F)cc2)n1)Nc1cccc(S(=O)(=O)N2CCCC2)c1`, which Potency is on record?
**A.** inconclusive: 31.6 µM [activator, single point]

**Q.** Which Potency does the source give for `CC(NC=O)c1nc2ccccc2n1CCc1ccccc1` (configuration not stated) here?
**A.** inactive

**Q.** With `Cc1cccc(C)c1-n1nnnc1C1(C)CCC(=O)N1CCc1ccccc1F` (configuration not stated) as the compound, how does the Potency read?
**A.** inconclusive: 12.6 µM [activator, partial curve, poor fit]

**Q.** With `COC(=O)c1ccccc1S(=O)(=O)N1CCCC(c2nc3c(nnn3Cc3ccc(C)cc3)c(=O)[nH]2)C1` (configuration not stated) as the compound, how does the Potency read?
**A.** inconclusive: 28.2 µM [activator, single point]

**Q.** For `CCOC(=O)C(C(=O)OCC)C(C[N+](=O)[O-])c1ccccc1` (configuration not stated), which Potency is on record?
**A.** inactive

**Q.** With `CC(=O)N1C(=O)/C(=C2\SC(=S)N(NC(=O)c3ccc(O)cc3)C2=O)c2ccccc21` as the compound, how does the Potency read?
**A.** inconclusive: 35.5 µM [activator, partial curve, poor fit]

**Q.** With `Cn1ncc(Br)c1C(=O)NC(=S)N1CCN(c2ccccn2)CC1` as the compound, how does the Potency read?
**A.** inactive

**Q.** Which Potency does the source give for `O=C(CN1CCN(S(=O)(=O)c2ccc(Cl)c(C(F)(F)F)c2)CC1)NC(=O)NC1CCCCC1` here?
**A.** inconclusive: 10 µM [activator, partial curve]

**Q.** With `CCCn1nc(C(=O)NNC(=O)CCCOc2ccc(OC)cc2)c2ccccc2c1=O` as the compound, how does the Potency read?
**A.** inactive

**Q.** Which Potency does the source give for `Cc1ccc(N2C(=O)c3ccccc3C2Nc2ccc(S(=O)(=O)N3CCOCC3)cc2)nc1` (configuration not stated) here?
**A.** inconclusive: 35.5 µM [activator, single point]

**Q.** Which Potency does the source give for `CC(=O)N1CCN(c2nc(-c3ccco3)c3c(c2C#N)CC(C)(C)SC3)CC1` here?
**A.** inconclusive: 31.6 µM [activator, partial curve, poor fit]

**Q.** For `CCc1ccc(CN(C)C(=O)C2CCC(=O)N(CC3CCCCC3)C2)cc1` (configuration not stated), which Potency is on record?
**A.** inconclusive: 39.8 µM [activator, partial curve]

**Q.** Which Potency does the source give for `CC(=O)OC[C@@H]1CN(Cc2cccc(C(F)(F)F)c2)C[C@H](n2cnc3c(NCc4ccco4)ncnc32)O1` here?
**A.** inconclusive: 25.1 µM [activator, single point]

**Q.** Which Potency does the source give for `CCOC(=O)C1=C(CN2CCOCC2)NC(=O)NC1c1cccc([N+](=O)[O-])c1` (configuration not stated) here?
**A.** inactive

**Q.** Which Potency does the source give for `COc1ccc(Nc2ncc(C(=O)Nc3cccc(OC)c3)c3ccccc23)cc1` here?
**A.** inconclusive: 28.2 µM [activator, partial curve, poor fit]

**Q.** For `c1csc(-c2nnc(SCc3cccc4ccccc34)o2)c1`, which Potency is on record?
**A.** inconclusive: 50.1 µM [activator, single point]

**Q.** With `Cc1ccc(CNC(=O)C(C(=O)NCc2ccc(C)o2)c2ncc(C(F)(F)F)cc2Cl)o1` as the compound, how does the Potency read?
**A.** inactive

**Q.** With `Cc1nc(NC(=S)NC(=O)c2ccccc2)sc1C` as the compound, how does the Potency read?
**A.** inactive

**Q.** Which Potency does the source give for `CN(Cc1ccccc1)C(=O)c1[nH]cnc1C(=O)Nc1ccc(Cl)cc1` here?
**A.** inconclusive: 35.5 µM [activator, single point]

**Q.** With `N#Cc1ccc(C(C(=O)Nc2ccc3c(c2)OCCO3)n2c(=O)c(-c3ccco3)nc3ccccc32)cc1` (configuration not stated) as the compound, how does the Potency read?
**A.** active: 6.31 µM

**Q.** For `COc1ccc(CNC(=O)c2cc(C3CC3)nc3c2cnn3C(C)C)cc1OC`, which Potency is on record?
**A.** inactive

**Q.** For `CC1CC(C)CN(CCCNC(=O)c2ccc3c(c2)N(Cc2ccccc2)C(=O)c2ccccc2S3=O)C1` (configuration not stated), which Potency is on record?
**A.** inconclusive: 12.6 µM [activator, partial curve]

**Q.** Which Potency does the source give for `Cc1ccc(NC(=O)CSc2nc(=O)n(Cc3ccncc3)c3c2CCC3)cc1Cl` here?
**A.** inactive

**Q.** With `O=C(Nc1ccccc1)C1CCN(S(=O)(=O)c2ccc3c(c2)CCCN3C(=O)C2CCC2)CC1` as the compound, how does the Potency read?
**A.** inconclusive: 25.1 µM [activator, single point]

**Q.** With `CCOc1ccc2nc(N3C(=O)/C(=C/c4ccc(Cl)cc4)NC3=S)sc2c1` as the compound, how does the Potency read?
**A.** inactive

**Q.** Which Potency does the source give for `O=C(NCCN1CCOCC1)c1cc(S(=O)(=O)Nc2ccccc2F)c(Cl)cc1Cl` here?
**A.** inconclusive: 3.55 µM [activator, partial curve, poor fit]

**Q.** For `C[C@@H]1CN([C@H](C)CO)C(=O)c2c(c3ccccc3n2C)-c2ccccc2CO[C@H]1CN(C)C(=O)Cc1ccccc1`, which Potency is on record?
**A.** inconclusive: 35.5 µM [activator, single point]

**Q.** Which Potency does the source give for `COCOCCn1cc(CN2CCS(=O)(=O)N(Cc3ccc(-c4ccc(Cl)cc4)cc3)C(C)C2=O)nn1` (configuration not stated) here?
**A.** inconclusive: 31.6 µM [activator, single point]

**Q.** Which Potency does the source give for `CCOC(=O)CCc1c(C)c2cc3c(c(C)c2oc1=O)OCN(CCc1ccccc1OC)C3` here?
**A.** inconclusive: 50.1 µM [activator, single point]

**Q.** With `CN(Cc1ccc(OC(F)F)cc1)C(=O)C1CCN(S(=O)(=O)c2ccc3c(c2)OCCO3)CC1` as the compound, how does the Potency read?
**A.** inconclusive: 25.1 µM [activator, partial curve]

**Q.** For `COc1ccc(S[C@]2(C(=O)N3CCN(c4ncccn4)CC3)CC(=O)N(S(=O)(=O)c3ccc(F)cc3)[C@@H]2c2ccc(OC)cc2)cc1`, which Potency is on record?
**A.** inconclusive: 22.4 µM [activator, single point]

**Q.** Which Potency does the source give for `COc1ccc(N2CC(C(=O)Nc3nnc(SCC(=O)Nc4ccc(NC(C)=O)cc4)s3)CC2=O)cc1` (configuration not stated) here?
**A.** inconclusive: 22.4 µM [activator, single point]

**Q.** Which Potency does the source give for `O=C(NCC(c1ccco1)S(=O)(=O)c1ccc(Cl)cc1)c1ccc(C(F)(F)F)cc1` (configuration not stated) here?
**A.** inactive

**Q.** For `Cc1ccccc1Cn1cc(CN2[C@@H](CC(C)C)COc3cccc(F)c3S2(=O)=O)nn1`, which Potency is on record?
**A.** inactive

**Q.** For `COc1cccc(CC(=O)Nc2c(C(=O)N3CCN(c4ccccc4)CC3)oc3ccccc23)c1`, which Potency is on record?
**A.** inconclusive: 11.2 µM [activator, partial curve, poor fit]

**Q.** With `O=C1c2ccccc2-c2onc3ccc(N4CCCC4)c1c23` as the compound, how does the Potency read?
**A.** inconclusive: 28.2 µM [activator, single point]

**Q.** Which Potency does the source give for `COc1cccc(C(C(=O)NC(C)(C)C)N(CC(C)C)C(=O)CCC(=O)Nc2cc(C)on2)c1OC` (configuration not stated) here?
**A.** inconclusive: 14.1 µM [activator, partial curve]

**Q.** Which Potency does the source give for `CC(C)(C)OC(=O)C[C@H]1C/C=C\C[C@@H](CC(=O)N[C@@H](CO)Cc2ccccc2)C(=O)NC[C@@H](c2ccccc2)OC1=O` here?
**A.** inconclusive: 22.4 µM [activator, partial curve]

**Q.** Which Potency does the source give for `COc1ccc(CCNC(=O)c2ccc3nc(-c4ccco4)c(-c4ccco4)nc3c2)cc1OC` here?
**A.** inconclusive: 7.94 µM [activator, partial curve]

**Q.** For `CCN1CCN(Cc2ccc(NC(=O)c3cc(NC(=O)c4cc5cccc(OC)c5o4)cc(OC)c3)cc2C(F)(F)F)CC1`, which Potency is on record?
**A.** inconclusive: 44.7 µM [activator, single point] and inconclusive: 28.2 µM [activator, single point]

**Q.** Which Potency does the source give for `COc1cc(CNn2c(C)n[nH]c2=S)cc(Cl)c1OCc1ccc(F)cc1` here?
**A.** inactive

**Q.** Which Potency does the source give for `OCCOCCn1c(CCNc2nc(-c3ccc(F)cc3)cs2)nc2cc(C(F)(F)F)ccc21` here?
**A.** inconclusive: 35.5 µM [activator, single point]

**Q.** Which Potency does the source give for `CC(C)C[C@H](NC(=O)c1nc[nH]c1C(=O)NC1CCN(C(=O)OC(C)(C)C)CC1)C(=O)OCc1ccccc1` here?
**A.** inconclusive: 14.1 µM [activator, partial curve, poor fit]

**Q.** With `Brc1ccc(-c2cn3cc(Cc4ccccc4)sc3n2)cc1` as the compound, how does the Potency read?
**A.** inactive

**Q.** Which growth rescue (activation) does the source give for `COc1ccc(Nc2cc(C(=O)NCCCN3CCN(C)CC3)c3ccccc3n2)c(OC)c1` here?
**A.** inconclusive: 68.1% [activator]

**Q.** Which Potency does the source give for `COc1cccc(NC(=O)CSc2nnc(Cc3cccn3C)n2-c2ccc(F)cc2)c1` here?
**A.** inconclusive: 20 µM [activator, partial curve]

**Q.** Which Potency does the source give for `CCOC(=O)C(C)Sc1nc(-c2ccco2)cc(C(F)(F)F)c1C#N` (configuration not stated) here?
**A.** inconclusive: 31.6 µM [activator, single point]

**Q.** With `CC(C)(C)c1cc(/C=N/NC(=O)Cc2nc3ccccc3[nH]2)cc(C(C)(C)C)c1O` as the compound, how does the Potency read?
**A.** inconclusive: 31.6 µM [activator, partial curve, poor fit]

**Q.** With `CCOC(=O)c1ccc(NC(=O)c2noc3c2CCCC3)cc1` as the compound, how does the Potency read?
**A.** inactive

**Q.** Which Potency does the source give for `CCOc1cc(/C=N/NC(=O)c2cc(-c3ccccc3)nc3ccccc23)ccc1O` here?
**A.** inconclusive: 50.1 µM [activator, single point]

**Q.** For `Cn1nnc2c[n+](CC(=O)c3ccc(Cl)cc3)cc(Br)c21`, which Potency is on record?
**A.** inconclusive: 35.5 µM [activator, single point]

**Q.** Which growth rescue (activation) does the source give for `CC1(C(=O)O)Cc2ccccc2C(=O)O1` (configuration not stated) here?
**A.** inconclusive: 1.86% [activator]

**Q.** For `COc1ccc2nc(SCC(=O)N(C)C3CCCCC3)c(C#N)cc2c1`, which Potency is on record?
**A.** inconclusive: 35.5 µM [activator, single point]

**Q.** With `COC(=O)c1sc(N)c(C(=O)OC)c1COC(=O)C1CC(=O)N(Cc2ccco2)C1` (configuration not stated) as the compound, how does the Potency read?
**A.** inconclusive: 22.4 µM [activator, partial curve, poor fit]

**Q.** Which Potency does the source give for `COc1ccc(CN(CC2CCC(C(=O)O)CC2)C(=S)Nc2cc(C)ccc2C)cc1` (configuration not stated) here?
**A.** inactive

**Q.** For `CCN1CCC(N(Cc2ccc(F)cc2)C(=O)Nc2ccc(C)c(F)c2)CC1`, which Potency is on record?
**A.** inactive
